{"source": "the supplement of paper PMC10037445", "key": {"[1]": {"tested_on": "RAW-Dual", "assay": "NF-kB SEAP reporter activity, fold change vs agonist alone; cytotoxicity flag (confluency mask): not cytotoxic; higher = enhanced NF-kB activity", "outline": "(§1)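 RAW-Dual macrophages (50,000 cells/well in DMEM, 384-well plates) received 50 nL of library stock by pin tool, then a PRR agonist 1 h later, and were kept at 37 °C, 5% CO2. After 20 hours, supernatant was read for IRF by QuantiLuc luminescence and for NF-κB by QuantiBlue absorbance at 620 nm. Reporter activity is fold change over agonist-alone wells. Cytotoxic wells had IncuCyte confluency below 70% of agonist controls in both mask sets.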"}, "[2]": {"tested_on": "RAW-Dual", "assay": "NF-kB SEAP reporter activity, fold change vs agonist alone; higher = enhanced NF-kB activity", "outline": "as §1"}, "[3]": {"tested_on": "RAW-Dual", "assay": "NF-kB SEAP reporter activity, fold change vs agonist alone; cytotoxicity flag (confluency mask): cytotoxic (confluency <70% of control); higher = enhanced NF-kB activity", "outline": "as §1"}, "[4]": {"conditions": "agonist: ODN 1826 (TLR9) 0.5 ug/mL"}, "[5]": {"conditions": "agonist: Pam2CSK4 (TLR2/6) 0.1 ug/mL"}, "[6]": {"conditions": "agonist: Pam3CSK4 (TLR2/1) 0.1 ug/mL"}, "[7]": {"conditions": "library stock concentration (final ~1000-fold dilution): 10 mM, cytotoxicity flag (confluency mask): not cytotoxic, agonist: Imiquimod (TLR7) […]"}, "[8]": {"conditions": "library stock concentration (final ~1000-fold dilution): 10 mM, cytotoxicity flag (confluency mask): not cytotoxic, agonist: MPLA (TLR4) […]"}}, "note": "The full ranking holds about 2,900 compounds; the median of “NF-kB SEAP reporter activity, fold change vs agonist alone” is about 0.99, and the highest 2% start at about 2.6. This is one part of the list."}
{"molecule": "Cc1cc(C)c(CNC(=O)c2cc(-c3ccc(CN4CCOCC4)cc3)cc3c2cnn3C2CCCC2)c(=O)[nH]1", "note": "(library stock concentration (final ~1000-fold dilution): 2 mM)", "values": [{"measurement": "NF-kB SEAP reporter activity", "setting": "[1]; agonist: LPS (TLR4) 0.1 ug/mL", "result": 1.37}, {"measurement": "NF-kB SEAP reporter activity", "setting": "[1]; [4]", "result": 0.508}, {"measurement": "NF-kB SEAP reporter activity", "setting": "[1]; [5]", "result": 0.738}, {"measurement": "NF-kB SEAP reporter activity", "setting": "[1]; [6]", "result": 0.498}]}
{"molecule": "Cc1cc(C)c(CNC(=O)c2cc(-c3ccc(CN4CCOCC4)cc3)cc3c2cnn3C2CCCC2)c(=O)[nH]1", "values": [{"measurement": "NF-kB SEAP reporter activity", "setting": "[2]; library stock concentration (final ~1000-fold dilution): 2 mM, cytotoxicity flag (confluency mask): not cytotoxic, agonist: Imiquimod (TLR7) […]", "result": 0.445}, {"measurement": "NF-kB SEAP reporter activity", "setting": "[2]; library stock concentration (final ~1000-fold dilution): 2 mM, cytotoxicity flag (confluency mask): not cytotoxic, agonist: MPLA (TLR4) […]", "result": 0.798}]}
{"molecule": "COc1ccc(Oc2cc(NCCC(F)(F)F)c3ncc(-c4ccc(C(=O)NC5CC5)c(C)c4)n3n2)c(F)c1F", "note": "(library stock concentration (final ~1000-fold dilution): 10 mM)", "values": [{"measurement": "NF-kB SEAP reporter activity", "setting": "[1]; agonist: LPS (TLR4) 0.1 ug/mL", "result": 2.44}, {"measurement": "NF-kB SEAP reporter activity", "setting": "[1]; [4]", "result": 1.78}, {"measurement": "NF-kB SEAP reporter activity", "setting": "[1]; [5]", "result": 0.636}, {"measurement": "NF-kB SEAP reporter activity", "setting": "[1]; [6]", "result": 0.913}]}
{"molecule": "COc1ccc(Oc2cc(NCCC(F)(F)F)c3ncc(-c4ccc(C(=O)NC5CC5)c(C)c4)n3n2)c(F)c1F", "values": [{"measurement": "NF-kB SEAP reporter activity", "setting": "[2]; [7]", "result": 1.19}, {"measurement": "NF-kB SEAP reporter activity", "setting": "[2]; [8]", "result": 1.32}]}
{"molecule": "C[C@H]1[C@@H](O)O[C@@H]2OC3(C)CC[C@H]4[C@H](C)CC[C@@H]1[C@@]24OO3", "note": "(library stock concentration (final ~1000-fold dilution): 10 mM)", "values": [{"measurement": "NF-kB SEAP reporter activity", "setting": "[1]; agonist: LPS (TLR4) 0.1 ug/mL", "result": 3.41}]}
{"molecule": "CC(C)c1cc2c(cc1S(=O)(=O)O)[C@@]1(C)CCC[C@@](C)(C(=O)O)[C@@H]1CC2", "note": "(library stock concentration (final ~1000-fold dilution): 10 mM)", "values": [{"measurement": "NF-kB SEAP reporter activity", "setting": "[1]; agonist: LPS (TLR4) 0.1 ug/mL", "result": 1.11}, {"measurement": "NF-kB SEAP reporter activity", "setting": "[1]; [4]", "result": 1.11}, {"measurement": "NF-kB SEAP reporter activity", "setting": "[1]; [5]", "result": 1.2}, {"measurement": "NF-kB SEAP reporter activity", "setting": "[1]; [6]", "result": 1.04}]}
{"molecule": "CC(C)c1cc2c(cc1S(=O)(=O)O)[C@@]1(C)CCC[C@@](C)(C(=O)O)[C@@H]1CC2", "values": [{"measurement": "NF-kB SEAP reporter activity", "setting": "[2]; [7]", "result": 0.747}, {"measurement": "NF-kB SEAP reporter activity", "setting": "[2]; [8]", "result": 1.02}]}
{"molecule": "Cc1ccccc1C(=O)Nc1ccc(C(=O)N2CCCC(O)c3cc(Cl)ccc32)c(C)c1", "note": "(configuration not stated)", "values": [{"measurement": "NF-kB SEAP reporter activity", "setting": "[2]; [7]", "result": 1.23}, {"measurement": "NF-kB SEAP reporter activity", "setting": "[2]; [8]", "result": 0.983}]}
{"molecule": "Cc1ccccc1C(=O)Nc1ccc(C(=O)N2CCCC(O)c3cc(Cl)ccc32)c(C)c1", "note": "(configuration not stated) (library stock concentration (final ~1000-fold dilution): 10 mM)", "values": [{"measurement": "NF-kB SEAP reporter activity", "setting": "[1]; agonist: LPS (TLR4) 0.1 ug/mL", "result": 1.05}, {"measurement": "NF-kB SEAP reporter activity", "setting": "[1]; [4]", "result": 0.949}, {"measurement": "NF-kB SEAP reporter activity", "setting": "[1]; [5]", "result": 0.953}, {"measurement": "NF-kB SEAP reporter activity", "setting": "[1]; [6]", "result": 0.792}]}
{"molecule": "NC(=O)c1ccc(-c2nc(-c3ccc4c(c3)OCCO4)c(-c3ccccn3)[nH]2)cc1", "note": "(library stock concentration (final ~1000-fold dilution): 10 mM)", "values": [{"measurement": "NF-kB SEAP reporter activity", "setting": "[1]; agonist: LPS (TLR4) 0.1 ug/mL", "result": 1.81}, {"measurement": "NF-kB SEAP reporter activity", "setting": "[1]; [4]", "result": 1.29}, {"measurement": "NF-kB SEAP reporter activity", "setting": "[1]; [5]", "result": 1.25}, {"measurement": "NF-kB SEAP reporter activity", "setting": "[1]; [6]", "result": 0.913}]}
{"molecule": "NC(=O)c1ccc(-c2nc(-c3ccc4c(c3)OCCO4)c(-c3ccccn3)[nH]2)cc1", "values": [{"measurement": "NF-kB SEAP reporter activity", "setting": "[2]; [7]", "result": 0.743}, {"measurement": "NF-kB SEAP reporter activity", "setting": "[2]; [8]", "result": 1.45}]}
{"molecule": "CCC1=CC2CN(C1)Cc1c([nH]c3ccccc13)C(C(=O)OC)(c1cc3c(cc1OC)N(C)C1C(O)(C(=O)OC)C(OC(C)=O)C4(CC)C=CCN5CCC31C54)C2", "note": "(configuration not stated)", "values": [{"measurement": "NF-kB SEAP reporter activity", "setting": "[2]; library stock concentration (final ~1000-fold dilution): 10 mM, cytotoxicity flag (confluency mask): cytotoxic (confluency <70% of control), agonist: Imiquimod (TLR7) […]", "result": 2.47}, {"measurement": "NF-kB SEAP reporter activity", "setting": "[2]; library stock concentration (final ~1000-fold dilution): 10 mM, cytotoxicity flag (confluency mask): cytotoxic (confluency <70% of control), agonist: MPLA (TLR4) […]", "result": 2.6}]}
{"molecule": "CCC1=CC2CN(C1)Cc1c([nH]c3ccccc13)C(C(=O)OC)(c1cc3c(cc1OC)N(C)C1C(O)(C(=O)OC)C(OC(C)=O)C4(CC)C=CCN5CCC31C54)C2", "note": "(configuration not stated) (library stock concentration (final ~1000-fold dilution): 10 mM)", "values": [{"measurement": "NF-kB SEAP reporter activity", "setting": "[3]; agonist: LPS (TLR4) 0.1 ug/mL", "result": 5.34}, {"measurement": "NF-kB SEAP reporter activity", "setting": "[3]; [4]", "result": 0.35}, {"measurement": "NF-kB SEAP reporter activity", "setting": "[3]; [5]", "result": 1.78}, {"measurement": "NF-kB SEAP reporter activity", "setting": "[3]; [6]", "result": 1.95}]}
